In the supplement of paper PMC11417369:
± gives the standard deviation of the averaged measurements. The list shows a part of the results.

tested on: PfAP2-G AP2 domain (GST-tagged); test: gcPBM binding intensity (ln(normalized median fluorescence intensity)); higher = stronger DNA binding
Method in brief: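 The binding buffer was 1× PBS containing 1% milk, 0.2 mg/ml BSA, 0.5% salmon testes DNA and 0.03% Triton X-100. In it, GST-tagged P. falciparum DNA-binding domains expressed in E. coli were applied for 1 h to an Agilent 4 × 180k array of primer-extended double-stranded 36-bp intergenic genomic probes plus negative controls. Binding intensity, read with Alexa488 anti-GST antibody and a 488 nm scan, is the highest Masliner-normalised natural-log median intensity across replicate spots of either probe orientation.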

Point of comparison: “ATACCTAAAAAATATACACACATATATATAAATATA [CACACA_site2580]”, “gcPBM binding intensity (ln)” value 9.805 ± 0.064. Against it:
- TATTTTTTAAAAAAACGTACAAACATAATAAAAATA [XGTACX_site1857] — higher, 11.5 ± 1.1
- TATATATATATATATGTGCACATTTTATTAAAATGT — higher, 10.4 ± 0.34
- ATAGACATTTTACTTTGTACATATAAACATATATAT [XGTACX_site2733] — higher, 10.8 ± 0.3
- ATATGAAACATGAAGGTGCATAATGTGTATATTTAT — higher, 10.2 ± 0.2
- ACATAAATATATTTTTCACACATCATTAGTTATGAA [CACACA_site4724] — within error, 9.84 ± 0.071
- TAATATATTATAAACACATGCACATTAATAATAACT [TGCATGCA_site708] — within error, 9.91 ± 0.071
- AATTAATGGGTACATACACACATATATACATACATA [CACACA_site742] — higher, 11.4 ± 1
- AATTAAATGTTTCTAAGATATACGACCAATGTATTT [CACACA_negctrl_site1694] — higher, 10.7 ± 0.47
- TGTATTATCTCTTATGAACACACATTTTTATTTTCA [CACACA_site9107] — higher, 9.95 ± 0.014
- ATGTTAATTAATGAGGTGCATTGAATATTTCAATAA — within error, 9.99 ± 0.21
- CATCAATGCTAATTATGTACTTACATAAATAACCCT [XGTACX_site968] — higher, 11.2 ± 0.81
- ATGATCTGTTTGTTTGTGCACATATATATATATTAA — higher, 10.7 ± 0.38
- TGGTGAAAAATATAAATATAAATAAATATATATATA [CACACA_negctrl_site1725] — within error, 9.57 ± 0.54
- AGAAGAAAACAAAACACACACATATATCTTAATATA [CACACA_site2231] — within error, 9.76 ± 0.15
- AAAAAAAAAAACTTTGCATGTAATAATAAAAAAAAA [TGCATGCA_site81] — within error, 9.845 ± 0.064
- ATGTAGAGTAATAGTTGTACAAGGTGTATATCTCAT [XGTACX_site6370] — higher, 11.4 ± 0.79
- TTTATATTTTTTTTTGCACACTTTAAAAAAATATAT [CACACA_site1146] — within error, 10.1 ± 0.32
- TATATATTACATAAAACACACAAAAAAAAAATTAAA [CACACA_site3882] — within error, 9.79 ± 0.12
- GAATATTTATGATGAACTATTAATTAATTTTACATA [GTGCAC_negctrl_site353] — within error, 9.68 ± 0.085
- AAATAAATTGAAGATACATGCATATTTTTTTTTTAT [TGCATGCA_site686] — within error, 9.63 ± 0.19
- ATGTCTTAAAAATTAAAACACACGTTCACTTTCATA [CACACA_site3385] — within error, 9.88 ± 0.15
- AGATCATAATATTATACACACATTAGATATAGGTAA [CACACA_site6809] — the same, 9.8 ± 0.2
- AGAGTTAAACGATATATATAAATATATATATATATA [GTGCAC_negctrl_site316] — within error, 9.7 ± 0.49
- AAAAAAAAAAACGACAGTACAATTATAATTTATATT [XGTACX_site2365] — higher, 10.5 ± 0.26
- AAAAATTATAAAAAACAAATATTAAATAATTATTAA [GTGCAC_negctrl_site125] — lower, 9.51 ± 0.21
- TTGATGGGAAAAAACTTTTTTTTCTTTTTTTCTTTC [CACACA_negctrl_site328] — lower, 9.41 ± 0.32
- TTTTTTTTTTTTTTTTTTTTTTTGCTCAGTGTGGTA [CACACA_negctrl_site29] — within error, 9.95 ± 0.56
- AAATGTAATTTGTCTTTTATTTATATTTGACATGAT [TGCATGCA_negctrl_site520] — lower, 9.62 ± 0.11
- ATATTAATGATATATACACACATAAGTATTGTATAT [CACACA_site7844] — within error, 9.89 ± 0.13
- TTATACTAAATGAACACACACACATATATATATATA [CACACA_site99] — within error, 10.4 ± 0.64
- TATCACCCACCATGAAGTACATATTACCATTTGATG [XGTACX_site845] — higher, 11.3 ± 0.82
- ATAAATAAATAAAAGCGTACATATATATAAAATATA [XGTACX_site8107] — higher, 11.6 ± 0.88
- AAAAGGAAGATATATACACACATACAAATATTTATA [CACACA_site7093] — within error, 9.895 ± 0.064
- AAAAAAAAAAAAAAAAGTACATATATATATTTATAT [XGTACX_site5893] — higher, 11.7 ± 1
- TATATATATATATAATGTACTTATATTTTTTTGAGG [XGTACX_site2638] — higher, 11.2 ± 0.79
- ATATGTATAAGTATGTATATTTATTTATACTTATGT [GTGCAC_negctrl_site221] — higher, 10.1 ± 0.2
- TTAATTAAAACGAATACACACATAAATATGTAAAAG [CACACA_site6707] — higher, 10.16 ± 0.042
- TATATGGTATGTATTACACACATATCACATATAGAT [CACACA_site7426] — within error, 9.94 ± 0.099
- TTTTAAATTTAATTTACACACTTTTCATAGCATTGA [CACACA_site3794] — within error, 9.9 ± 0.042
- TTCTATTCACATTTTACACACGTCCATCGCATTTTA [CACACA_site3453] — higher, 10.6 ± 0.2
- TTATATTTATAAAATTGTATACCCCTTCTAACTTTC [CACACA_negctrl_site250] — higher, 10.2 ± 0.23
- ATTGTGCTCATCAGCACACACAACATCATGTAATAA [CACACA_site1863] — within error, 10.2 ± 0.38
- TATATATATGGTTTAACACACGAGATAAAAGTATAT [CACACA_site2867] — higher, 10.08 ± 0.042
